Experimental data: PubChem BioAssay AID686978 (National Center for Advancing Translational Sciences (NCATS), 2013)
Hit rate of the full screen: of about 420,000 compounds, about 64,000 (15%) were called active. This list was built around the results that the source calls inconclusive (neither active nor inactive); the mix of calls is not that of the screen. Calls follow the shape of the dose curve; as a rule, active = well fitted inhibition curve with a large enough effect; inconclusive = small, poorly fitted or top-dose-only effect; inactive = flat fitted curve, though single readings scatter. No potency is given beside an inconclusive call; the fits are too rough.

Assay: qHTS for Inhibitors of human tyrosyl-DNA phosphodiesterase 1 (TDP1): qHTS in cells in absence of CPT; also: nearly all actives have a fitted effect of over 55% in size
Conditions: DT40 Tdp1-/- hTDP1 cells, no CPT, ATP luminescence, 48 h; activity change, negative = growth inhibition: at 46.2 µM (top of the series) unless noted
Summary of the method: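 Seeded 400 DT40-hTDP1 cells/well (vehicle DMSO, no 20 nM CPT); pinned compounds; ≥48 hr at 37 °C; CellTiter-Glo luminescence as viability measure.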
% is scaled to controls: 0 for no effect and ±100 for the full control effect; potency is read from the fitted curve at half-maximal effect; tags tell the direction and shape of the fitted curve.

Row | SMILES | Potency | activity change, negative = growth inhibition
1 | CC(C)c1ccc2oc(=O)cc(CN3CCN(Cc4ccccc4)CC3)c2c1 | inconclusive [inhibitor, single point] | –
2 | Cc1nn(C)c(Cl)c1NC(=O)OCc1ccc(Cl)cc1Cl | active: 13 µM | –
3 | COc1ccc(/C=N\N=C2/SC(CC(=O)O)C(=O)N2c2ccc(O)cc2)cc1 (stereo not given) | – | inactive: 2.02%
4 | Cc1ccc(OCC(=O)NC2CCS(=O)(=O)C2)c(C)c1 (stereo not given) | – | inactive: 17.4%
5 | CN(Cc1c(C(=O)N/N=C/c2c(F)cccc2Cl)nnn1-c1nonc1N)C1CCCCC1 | – | inactive: -3.39%
6 | CN(C(=O)c1ccc(NC(=O)Cc2cccc(NC(=O)C3CCCN(C(=O)C4CCCC4)C3)c2)cc1)C1CC1 (stereo not given) | inconclusive [inhibitor, partial curve] | –
7 | CCc1nnc2c(N3CCN(c4cccc(C)c4)C(C)C3)nc3ccccc3n12 (stereo not given) | inconclusive [inhibitor, single point] | –
8 | COc1ccc(NC(=S)NC(NC(=O)C(C)C)C(Cl)(Cl)Cl)c([N+](=O)[O-])c1 (stereo not given) | – | inactive: -23.3%
9 | COc1cc(/C=C/c2sc3ccccc3[n+]2CCCS(=O)(=O)[O-])ccc1O | inconclusive [inhibitor, partial curve, poor fit] | –
10 | CCC(=O)N1CCN(c2cc(NCC3CCCO3)c(F)cc2[N+](=O)[O-])CC1 (stereo not given) | – | inactive: -15.2%
11 | Cc1ccc(CN2CCN(Cc3cnc(C)[nH]3)CC2CCO)cc1 (stereo not given) | – | inactive: -5.67%
12 | O=C(NCCOc1ccccc1)C1CCC(=O)N(C2CCCCCC2)C1 (stereo not given) | – | inactive: -12.5%
13 | C[C@H](CO)N1C[C@H](C)[C@@H](CN(C)S(=O)(=O)c2ccc(F)cc2)Oc2c(NC(=O)Nc3ccc4c(c3)OCO4)cccc2C1=O | inconclusive [inhibitor, partial curve] | –
14 | Cn1cc(CN2CCCCC2CO)c(-c2ccc(Oc3ccccc3)cc2)n1 (stereo not given) | inconclusive [inhibitor, single point] | –
15 | CN(Cc1nc2ccccc2c(=O)[nH]1)C(=O)c1cc(-c2ccc(Br)cc2)nc2ccccc12 | inconclusive [inhibitor, single point] | –
16 | N#CC1=C(N)OC2=C(CCc3ccccc32)C1c1ccccc1 (stereo not given) | active: 0.92 µM | –
17 | COc1ccc(NC(=S)N2CCCN(Cc3cc(C)ccc3C)C2)cc1 | inconclusive [inhibitor, single point] | –
18 | COC(=O)CCC(=O)OC1(C)C(=O)C2=CN(c3ccccc3)C(c3ccc(OC)cc3)=CC2=C(Br)C1=O (stereo not given) | inconclusive [inhibitor, single point] | –
19 | CCCC(=O)N(C1CC(C)C(C#N)(C#N)C1(C#N)C#N)N(C)C (stereo not given) | active: 2.31 µM | –
20 | O=S(=O)(c1ccccc1)N1CCCCC1CCc1ccccc1 (stereo not given) | active: 13 µM | –
21 | COc1cc(C)cc(C(=O)C=Cc2ccccc2)c1O | inconclusive [inhibitor, partial curve, poor fit] | –
22 | COc1cc2nc(CN3CCN(S(=O)(=O)c4ccc(C)c(C)c4)CC3)[nH]c(=O)c2cc1OC | inconclusive [inhibitor, single point] | –
23 | CCOC(=O)N1CCN(C(=O)C2CCN(C(=O)c3cc4sccc4n3CC)CC2)CC1 | inconclusive [inhibitor, single point] | –
24 | COc1ccc(C2C=C(c3ccc(F)cc3)Nc3nc(-c4ccc(Cl)cc4)nn32)cc1 (stereo not given) | inconclusive [inhibitor, single point] | –

Row | SMILES | Potency | activity change, negative = growth inhibition
25 | CC1CCN(c2nc3c(S(=O)(=O)c4ccccc4)nnn3c3ccc(Cl)cc23)CC1 | active: 18.4 µM | –
26 | COc1ccc(NC(=O)c2ccc3c(c2)N(Cc2cccc(Cl)c2)C(=O)c2ccccc2S3=O)cc1Cl (stereo not given) | inconclusive [inhibitor, single point] | –
27 | O=C(c1ccc(Cl)cc1)N1CCN(c2ccc(N3CCOCC3)nn2)CC1 | inconclusive [inhibitor, single point] | –
28 | COc1ccccc1NC(=O)c1ccccc1Nc1ccccc1 | inconclusive [inhibitor, single point] | –
29 | CC(=O)c1ccc(NC(=O)c2ccc(S(=O)(=O)N3CCCC3)cc2)cc1 | active: 16.4 µM | –
30 | COc1ccccc1CNC(=O)CCNS(=O)(=O)c1ccc2[nH]c(=O)oc2c1 | – | inactive: -2.21%
31 | COc1ccc(-c2nc(C#N)c(NCc3ccco3)o2)cc1 | active: 16.4 µM | –
32 | COc1cc(OC)c(NC(=O)c2ccoc2C)cc1Cl | inconclusive [inhibitor, single point] | –
33 | COc1cccc(Cc2nc3ccccc3nc2SCC(=O)NCCc2ccccc2)c1 | active: 18.4 µM | –
34 | CC(C)Cc1ccc(-c2cc3nc(NCCOc4ccccc4)ccn3n2)cc1 | inconclusive [inhibitor, single point] | –
35 | Cc1ccc(-c2nc3ccccc3[nH]2)cc1NC(=O)COc1ccccc1[N+](=O)[O-] | inconclusive [inhibitor, full curve, poor fit] | –
36 | CCN(CC)C(=O)C1=C(C)N(CCCN2CCCC2=O)C(=O)C(CC(=O)NCc2cccc3ccccc23)C1 (stereo not given) | inconclusive [inhibitor, single point] | –
37 | COc1ccccc1NC(=O)NCCCN1CCN(c2ccc(F)cc2)CC1 | inconclusive [inhibitor, single point] | –
38 | CCCCNC(=O)C1(C)CCN1C(=O)c1cc2ccccc2s1 (stereo not given) | inconclusive [inhibitor, single point] | –
39 | N#Cc1nc(COc2ccc(Cl)cc2Cl)oc1N1CCN(c2ccccc2)CC1 | inconclusive [inhibitor, single point] | –
40 | Cc1c(C)n(Cc2ccccc2)c2ccc(C(=O)NCc3ccccc3F)cc12 | active: 18.4 µM | –
41 | O=C(COC(=O)c1c(Cl)ccc(Cl)c1Cl)NC(=O)NCc1ccccc1 | inconclusive [inhibitor, partial curve] | –
42 | CC(=O)c1cccc(NC(=O)CN2C(=O)c3ccccc3Sc3ncccc32)c1 | active: 8.2 µM | –
43 | O=C(Nc1ccc2nc(-c3cccs3)c(-c3cccs3)nc2c1)N1CCOCC1 | active: 13 µM | –
44 | Cc1ccccc1Cn1c(C)c(C(=O)NCC(C)C)sc1=O | – | inconclusive: -33.2% [inhibitor]
45 | Cc1cc(C)cc(NC(=O)CSc2nncn2-c2ccccn2)c1 | – | inactive: -14.1%
46 | Nc1cccc2[nH]c(C(F)(F)F)nc12 | inconclusive [inhibitor, partial curve, poor fit] | –
47 | CC(=O)O[C@H]1CC[C@H]2[C@@H]3CCc4cc(O)ccc4[C@H]3CC[C@]12C | inconclusive [inhibitor, partial curve, poor fit] | –
48 | C=CCNC(=O)CN(CCc1ccccc1)S(=O)(=O)c1ccccc1 | – | inactive: 5.01%

Row | SMILES | Potency | activity change, negative = growth inhibition
49 | COc1cc(CCNc2ccc3nnc(-c4ccccc4)n3n2)cc(OC)c1OC | active: 10.3 µM | –
50 | CCCCNC(=O)c1onc(CS(=O)(=O)c2ccccn2)c1C(=O)NCCCC | – | inactive: -13.3%
51 | COc1cc2c(cc1OC)C(c1oc(-c3ccc(-c4cc(Cl)ccc4Cl)o3)cc1C)=NCC2 | active: 0.355 µM | –
52 | O=C(/C=C/c1ccco1)Nc1ccccc1N1CCCCC1 | inconclusive [inhibitor, single point] | –
53 | O=C(COC(=O)c1ccc(S(=O)(=O)N2CCCCCC2)cc1)NCc1ccc(Cl)cc1 | – | inactive: 6.48%
54 | Cc1cc2ncn(/N=C/c3ccc(-c4ccccc4)o3)c2cc1C | inconclusive [inhibitor, single point] | –
55 | N#C/C(=N\Nc1cccc(C(F)(F)F)c1)C(=O)c1csc(-c2cccnc2)n1 | active: 25.9 µM | –
56 | CC(C)n1c(/C=C/c2ccccc2)nc2ccccc21 | inconclusive [inhibitor, single point] | –
57 | C=C(C)Cn1c(C2CC(=O)N(c3ccccc3F)C2)nc2ccccc21 (stereo not given) | inconclusive [inhibitor, single point] | –
58 | c1cnc2ccc(C(c3nnnn3C3CCCCC3)N3CCCCC3)cc2c1 (stereo not given) | – | inconclusive: -32.8% [inhibitor]
59 | COc1ccc(-c2csc(N(CCCN(C)C)C(=O)c3ccc(C)cc3)n2)cc1 | active: 16.4 µM | –
60 | NC(N)=Nc1ccc(/C=C2\C=Cc3ccccc32)cc1 | active: 12.6 µM | –
61 | Cn1cnnc1Sc1cc(N2CCN(S(=O)(=O)c3ccc4ccccc4c3)CC2)ccc1[N+](=O)[O-] | inconclusive [inhibitor, single point] | –
62 | C/C=C/C=C/C(=O)N1CC[C@]23c4ccccc4N[C@H]4N(C)c5cccc6c5[C@]42CCN([C@H]6C2OC2(C)C)[C@H]13 (stereo not given in full) | inconclusive [inhibitor, single point] | –
63 | COc1ccc(N2C3=[N+](CC2(C)O)c2ccccc2CC3)cc1 (stereo not given) | – | inactive: -13.3%
64 | CCOc1cc2[nH]c(=S)n(Cc3ccc(C(=O)NCCCN4CCOCC4)cc3)c(=O)c2cc1OCC | active: 18.4 µM | –
65 | O=C(CN1CCN(C(=O)CCC(=O)N2CCC(c3ccccc3)=N2)CC1)Nc1ccc(F)cc1 | active: 23.1 µM | –
66 | CCC(C)NS(=O)(=O)c1ccc(NS(=O)(=O)c2ccc(F)cc2)cc1 (stereo not given) | – | inactive: -14.3%
67 | CC(=O)N(c1ccc2oc(=O)sc2c1)S(=O)(=O)c1cccc2cccnc12 | inconclusive [inhibitor, single point] | –
68 | Cn1nc(C(C)(C)C)cc1C(=O)N1CCCCC1c1cc(C(=O)N2CCOCC2)no1 (stereo not given) | inconclusive [inhibitor, single point] | –
69 | Fc1ccc(-c2nnc(CN3CCN(c4ncc(C(F)(F)F)cc4Cl)CC3)o2)cc1 | active: 14.6 µM | –
70 | CS(=O)(=O)N(CC(=O)Nc1ccccc1Sc1ccccc1)c1ccc(F)cc1 | inconclusive [inhibitor, partial curve] | –
